T1: sortilin on the surface of U-251 and PC-3 cells (human (endogenous in U-251 and PC-3), UniProt Q99523 78-831)
T1 sequence (looked up): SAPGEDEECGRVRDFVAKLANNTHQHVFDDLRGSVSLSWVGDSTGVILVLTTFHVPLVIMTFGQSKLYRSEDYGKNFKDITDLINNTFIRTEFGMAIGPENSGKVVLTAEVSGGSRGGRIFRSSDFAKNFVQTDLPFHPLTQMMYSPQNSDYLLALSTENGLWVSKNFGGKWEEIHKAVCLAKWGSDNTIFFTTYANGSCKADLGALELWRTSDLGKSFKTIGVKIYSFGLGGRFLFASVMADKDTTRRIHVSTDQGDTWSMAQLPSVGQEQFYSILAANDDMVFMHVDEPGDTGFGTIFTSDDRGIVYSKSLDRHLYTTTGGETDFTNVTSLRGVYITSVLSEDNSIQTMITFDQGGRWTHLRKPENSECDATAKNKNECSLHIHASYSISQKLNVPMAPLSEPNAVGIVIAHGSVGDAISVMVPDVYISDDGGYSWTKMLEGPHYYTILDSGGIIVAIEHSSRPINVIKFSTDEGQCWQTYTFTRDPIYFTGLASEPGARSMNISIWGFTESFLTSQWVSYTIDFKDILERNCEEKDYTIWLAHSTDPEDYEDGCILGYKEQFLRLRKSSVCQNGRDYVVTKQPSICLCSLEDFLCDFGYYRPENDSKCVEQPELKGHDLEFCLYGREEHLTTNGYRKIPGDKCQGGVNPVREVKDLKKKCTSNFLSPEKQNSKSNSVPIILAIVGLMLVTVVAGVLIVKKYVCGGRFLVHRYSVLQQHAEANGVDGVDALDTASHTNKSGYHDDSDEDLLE

T2: human sortilin (R&D Systems, 3154-ST) (human, UniProt Q99523 78-755)
T2 construct: sortilin, human, recombinant protein bought from R&D Systems (3154-ST); also called hSort; SORT1; source: bought: R&D Systems (3154-ST)
T2 sequence (looked up): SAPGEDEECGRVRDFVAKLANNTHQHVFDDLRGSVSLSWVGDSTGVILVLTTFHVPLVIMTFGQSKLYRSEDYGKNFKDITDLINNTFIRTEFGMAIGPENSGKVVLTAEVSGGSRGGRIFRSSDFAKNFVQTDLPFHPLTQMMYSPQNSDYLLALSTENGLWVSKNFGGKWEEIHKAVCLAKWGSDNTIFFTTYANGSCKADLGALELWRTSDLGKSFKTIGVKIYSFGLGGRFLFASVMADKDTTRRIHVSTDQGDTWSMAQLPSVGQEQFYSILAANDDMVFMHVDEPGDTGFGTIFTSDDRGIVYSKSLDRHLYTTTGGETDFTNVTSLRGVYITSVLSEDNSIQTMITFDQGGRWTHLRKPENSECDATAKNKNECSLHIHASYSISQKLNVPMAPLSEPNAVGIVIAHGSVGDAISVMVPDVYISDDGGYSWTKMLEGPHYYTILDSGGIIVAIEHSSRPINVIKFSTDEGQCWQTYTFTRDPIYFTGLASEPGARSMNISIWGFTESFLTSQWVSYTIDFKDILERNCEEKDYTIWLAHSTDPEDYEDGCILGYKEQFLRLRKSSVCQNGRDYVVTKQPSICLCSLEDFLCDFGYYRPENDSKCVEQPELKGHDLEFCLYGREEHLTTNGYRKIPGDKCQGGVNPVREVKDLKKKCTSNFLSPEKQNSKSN


These binders were tested against T1, sortilin on the surface of U-251 and … (assay: cell-based or functional assay). Details: not given.

Binder | PGRN clearance assay: EC50 of the increase of extracellular PGRN (ELISA) after 72 h on U-251 cells; the pair blocked is sortilin and secreted PGRN [nM] | PGRN clearance assay: fold increase of extracellular PGRN (ELISA) against untreated U-251 cells after 72 h, increasing concentrations up to 500 nM [fold]
ABD-A3-PGRNC15* (His6-ABD035-G4S-A3-PGRNC15*) (designed binder) LAEAKVLANRELDKYGVSDFYKRLINKAKTVEGVEALKLHILAALPGGGGSVDNKFNKEIEEAGAEIIQLPNLNRWQKGAFIVSLKDDPSQSANLLAEAKKLNDAQAPKRWDAPLRDPGLRQLL | 1.3 | 2.5

The binders below were run against T2, human sortilin (R&D Systems, 3154-ST) (assay: SPR; Biacore 8K, affinity determination of second-generation constructs; 30-100 RU of ABD035-containing constructs captured on immobilised HSA (CM5); 1-200 nM human sortilin injected 180 s at 30 µl/min, 25°C, PBST; 60 min dissociation; 1:1 Langmuir fit; apparent constants; n=3 technical replicates). Details: both partners purified.

Binder | Kd [nM] | koff [s⁻¹] | kon [M⁻¹ s⁻¹]
ABD-A3-PGRNC3 (His6-ABD035-G4S-A3-PGRNC3) (designed binder) LAEAKVLANRELDKYGVSDFYKRLINKAKTVEGVEALKLHILAALPGGGGSVDNKFNKEIEEAGAEIIQLPNLNRWQKGAFIVSLKDDPSQSANLLAEAKKLNDAQAPKQLL | 3.93 | 0.00295 | 752000
ABD-A3-PGRNC12* (His6-ABD035-G4S-A3-PGRNC12*) (designed binder) LAEAKVLANRELDKYGVSDFYKRLINKAKTVEGVEALKLHILAALPGGGGSVDNKFNKEIEEAGAEIIQLPNLNRWQKGAFIVSLKDDPSQSANLLAEAKKLNDAQAPKAPLRDPGLRQLL | 0.251 | 7.12e-05 | 283000
ABD-A3-PGRNC18* (His6-ABD035-G4S-A3-PGRNC18*) (designed binder) LAEAKVLANRELDKYGVSDFYKRLINKAKTVEGVEALKLHILAALPGGGGSVDNKFNKEIEEAGAEIIQLPNLNRWQKGAFIVSLKDDPSQSANLLAEAKKLNDAQAPKEAPRWDAPLRDPGLRQLL | 0.217 | 6.69e-05 | 308000
ABD-A3-PGRNC9* (His6-ABD035-G4S-A3-PGRNC9*) (designed binder) LAEAKVLANRELDKYGVSDFYKRLINKAKTVEGVEALKLHILAALPGGGGSVDNKFNKEIEEAGAEIIQLPNLNRWQKGAFIVSLKDDPSQSANLLAEAKKLNDAQAPKRDPGLRQLL | 0.224 | 5.95e-05 | 265000
ABD-A3-PGRNC6* (His6-ABD035-G4S-A3-PGRNC6*) (designed binder) LAEAKVLANRELDKYGVSDFYKRLINKAKTVEGVEALKLHILAALPGGGGSVDNKFNKEIEEAGAEIIQLPNLNRWQKGAFIVSLKDDPSQSANLLAEAKKLNDAQAPKGLRQLL | 0.289 | 8.09e-05 | 281000
ABD-A3-PGRNC21* (His6-ABD035-G4S-A3-PGRNC21*) (designed binder) LAEAKVLANRELDKYGVSDFYKRLINKAKTVEGVEALKLHILAALPGGGGSVDNKFNKEIEEAGAEIIQLPNLNRWQKGAFIVSLKDDPSQSANLLAEAKKLNDAQAPKLRREAPRWDAPLRDPGLRQLL | 0.215 | 6.98e-05 | 325000
ABD-A3-PGRNC15* (His6-ABD035-G4S-A3-PGRNC15*) (designed binder) LAEAKVLANRELDKYGVSDFYKRLINKAKTVEGVEALKLHILAALPGGGGSVDNKFNKEIEEAGAEIIQLPNLNRWQKGAFIVSLKDDPSQSANLLAEAKKLNDAQAPKRWDAPLRDPGLRQLL | 0.185 | 5.94e-05 | 321000

— paper PMC11342335, “An anti-sortilin affibody-peptide fusion inhibits sortilin-mediated progranulin degradation” (Frontiers in Immunology, 2024)
